# Measurements published in PubChem BioAssay AID588342 (National Center for Advancing Translational Sciences (NCATS), 2011).
# In all, about 360,000 compounds went through this assay and about 25,000 (6.9%) were called active. The shares of active, inactive and inconclusive entries below differ from those in the screen. Calls come from the whole dose curve; as a rule, active = well fitted inhibition curve with a large enough effect; inconclusive = small, poorly fitted or top-dose-only effect; inactive = flat fitted curve, though single readings scatter. A potency beside an inconclusive call is a rough fit, not a confirmed value.
# Biological target: Luciferin 4-monooxygenase (Photinus pyralis) (UniProt P08659)
# Assay: qHTS profiling assay for firefly luciferase inhibitor/activator using purifed enzyme and Km concentrations of substrates (counterscreen for miR-21 project); note: nearly all actives have a fitted effect of over 55% in size
# Details: purified FLuc, luminescence inhibition; series mostly up to 57.5 µM
# How it was run: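 Biochemical qHTS of compounds, final roughly 60 µM downward over six points, against 10 nM purified firefly luciferase using Km concentrations of substrates (10 uM D-luciferin, 10 uM ATP) in Tris acetate pH 7.5 buffer; luminescence output.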
# Potency is the fitted concentration of half-maximal effect; tags give direction and shape of the fitted curve.
# UniProt P08659, sequence (P08659 whole entry, looked up): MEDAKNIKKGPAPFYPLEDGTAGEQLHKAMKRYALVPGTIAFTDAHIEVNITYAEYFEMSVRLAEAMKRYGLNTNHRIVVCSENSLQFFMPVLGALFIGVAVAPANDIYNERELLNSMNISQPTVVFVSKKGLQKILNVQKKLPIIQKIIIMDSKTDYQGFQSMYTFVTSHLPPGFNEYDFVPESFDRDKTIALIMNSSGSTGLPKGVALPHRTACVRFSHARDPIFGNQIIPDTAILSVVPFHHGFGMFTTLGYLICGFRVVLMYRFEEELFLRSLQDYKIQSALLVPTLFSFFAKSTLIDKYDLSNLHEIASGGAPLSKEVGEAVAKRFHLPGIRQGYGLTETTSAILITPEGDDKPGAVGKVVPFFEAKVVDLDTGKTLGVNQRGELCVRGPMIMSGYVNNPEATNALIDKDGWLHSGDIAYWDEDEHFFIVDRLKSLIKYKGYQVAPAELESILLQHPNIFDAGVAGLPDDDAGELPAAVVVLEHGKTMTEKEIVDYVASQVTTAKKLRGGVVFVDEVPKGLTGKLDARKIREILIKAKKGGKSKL
row,SMILES,Potency
1,Cc1cccc(NC(=S)NNC(=O)c2cccc([N+](=O)[O-])c2)c1,"inconclusive: 23.9 µM [inhibitor, single point]"
2,COc1ccccc1CNC(=O)COCc1cc(-c2ccc3c(c2)OCO3)on1,"inconclusive: 30.1 µM [inhibitor, partial curve, poor fit]"
3,O=C(Nc1ccc2c(c1)OCO2)c1ccc(Br)c(S(=O)(=O)N2CCCC2)c1,"inconclusive: 37.9 µM [inhibitor, partial curve, poor fit]"
4,O=C(N/N=C\c1ccncc1)c1ccc(Br)s1,active: 15.1 µM
5,CCOc1ccc(S(=O)(=O)Nc2ccc3oc4c(c3c2)CC(C)CC4)cc1 (configuration not stated),inactive
6,Clc1ccc(-c2cn3cc(Cl)ccc3n2)cc1,active: 0.269 µM
7,O=C(OCC#CCSc1nnc(-c2ccc(Br)cc2)o1)c1cccs1,"inconclusive: 37.9 µM [inhibitor, partial curve, poor fit]"
8,Cc1ccc(NC(=O)CN2C(=O)NC3(CCc4ccccc43)C2=O)cc1Cl (configuration not stated),"inconclusive: 26.9 µM [inhibitor, single point]"
9,O=C(Nc1ccc(C(O)(C(F)(F)F)C(F)(F)F)cc1)c1ccc(Cl)c([N+](=O)[O-])c1,"inconclusive: 26.9 µM [inhibitor, partial curve, poor fit]"
10,COC(=O)c1ccc(C)c(NC(=O)COC(=O)C2CC3CCCC(C2)C3=O)c1 (configuration not stated),inactive
11,O=C(COc1ccc(F)cc1)OCc1cc(=O)n2nc(-c3cccs3)sc2n1,inactive
12,Cc1nnc(SCc2nc3ccccc3s2)n1-c1ccccc1,active: 15.1 µM
13,O=C(Nc1ccc(N2CCCC2)cc1)c1ccc2ccccc2c1,active: 1.35 µM
14,O=c1[nH]c2ccc(Cl)cc2c(O)c1Cc1ccccc1,"inconclusive: 8.49 µM [inhibitor, partial curve, poor fit]"
15,COc1cccc(CNS(=O)(=O)c2c(C(=O)N3CCC(C)CC3)c(C)n(C)c2C)c1,inactive
16,Cc1ccc(C(=O)CNc2cccc([N+](=O)[O-])c2)cc1,"inconclusive: 1.69 µM [inhibitor, partial curve, poor fit]"
17,CCCCC1(C(=O)OC)NC(c2ccc(O)cc2)C2C(=O)N(c3ccccc3)C(=O)C21 (configuration not stated),inactive
18,CN1C(=O)c2cccc(NCCCN3C(=O)c4ccccc4C3=O)c2C1=O,inactive
19,CCOC(=O)c1ccc(NCc2nc3ccccc3[nH]2)cc1,active: 21.3 µM
20,Cc1nnc2ccc(-c3ccc(NS(=O)(=O)c4ccc(F)cc4F)cc3)nn12,inactive
21,Cc1ccc2c(c1)OC(c1ccc3c(c1)OCCO3)CC2=O (configuration not stated),"inconclusive: 23.9 µM [inhibitor, single point]"
22,CCn1c(C(=O)OC)cc2c1ccn2-c1ccc(F)cc1,active: 9.53 µM
23,CC(C)Cn1c(=S)[nH]c2cc(C(=O)O)ccc2c1=O,"inconclusive: 10.7 µM [inhibitor, partial curve]"
24,COc1ccc(/C(N)=N/OC(=O)/C=C/c2ccccc2)cc1,active: 15.1 µM

row,SMILES,Potency
1,Fc1cccc2sc(N3CCCC3)nc12,"inconclusive: 26.9 µM [inhibitor, partial curve]"
2,CC(C)c1ccc(OCC(=O)NN2C(=O)c3ccccc3C2=O)c(Br)c1,"inconclusive: 33.8 µM [inhibitor, single point]"
3,COc1cc2c(cc1OC)n(CC(=O)NC1CCCCCC1)n1c(C)cc(=O)nc21,inactive
4,Cc1ccc(F)c(Cn2cnc3c(cnn3C(C)(C)C)c2=O)c1Cl,"inconclusive: 25.1 µM [inhibitor, single point]"
5,S=C1NC2=C(CCCC2=C2SCCCS2)C(c2ccccc2)N1 (configuration not stated),"inconclusive: 13.5 µM [inhibitor, partial curve, poor fit]"
6,COc1ccc(NC(=O)Cc2nnc(SCC(=O)Nc3ccc(F)cc3)n2C)cc1,"inconclusive: 23.9 µM [inhibitor, partial curve]"
7,O=C(CCn1cnnn1)N1CCCC(Nc2ccc(F)c(F)c2)C1 (configuration not stated),inactive
8,Cc1ccc(-c2nnc(NC(=O)C3=COCCO3)o2)c(C)c1,active: 15.1 µM
9,CC(=O)Nc1nc(C2COc3ccccc3O2)cs1 (configuration not stated),active: 4.78 µM
10,O=C(CN1C(=O)/C(=C/c2cccc(Br)c2)SC1=S)N1CCCC1,"inconclusive: 7.57 µM [inhibitor, partial curve, poor fit]"
11,CCn1c(SCC(=O)N(C)CCC#N)nc2cc(S(=O)(=O)N3CCOCC3)ccc21,inactive
12,Cc1cc(NC(=O)c2ccccc2)sc1C,active: 3.38 µM
13,COc1ccc(C)c2sc(NC(=O)C3CC3)nc12,"inconclusive: 21.3 µM [inhibitor, single point]"
14,CCCCN(C)C(=O)CSc1nc2ccccc2nc1Cc1ccc(C)cc1,"inconclusive: 26.9 µM [inhibitor, partial curve, poor fit]"
15,CCOc1ccc(NC(=O)c2cc(S(=O)(=O)N3CCN(c4ccccc4F)CC3)ccc2F)cc1,inactive
16,Brc1ccc(-c2ccc(/C=N/Nc3nncc(-c4ccccc4)n3)o2)cc1,inactive
17,COc1ccc(C(=O)N/N=C/c2sc(=O)n(Cc3cccc(C(=O)O)c3)c2Cl)cc1,active: 26.9 µM
18,O=c1cc(-c2ccccc2)n2c(SCc3ccccc3Cl)nnc2[nH]1,"inconclusive: 4.78 µM [inhibitor, partial curve, poor fit]"
19,CCCC1=NN2C(=N)/C(=C\c3ccc(SCc4ccco4)o3)C(=O)N=C2S1,"inconclusive: 37.9 µM [inhibitor, partial curve, poor fit]"
20,CCOc1ccc(NC(=O)CSc2nc3ccsc3c(=O)n2CCCCCC(=O)O)cc1,"inconclusive: 21.3 µM [inhibitor, partial curve, poor fit]"
21,CC(=O)c1ccc(Nc2ncnc3c2oc2ccccc23)cc1,"inconclusive: 4.26 µM [inhibitor, partial curve, poor fit]"
22,COc1ccc(-c2cn3cc(C)ccc3n2)cc1Br,active: 0.478 µM
23,COc1ccc(/C=N/n2c(=S)n(C)c3ccccc32)cc1OC,"inconclusive: 23.9 µM [inhibitor, single point]"
